Measured values published in the supplement of paper PMC12632987.
Over roughly 4,500 sequences, “median log2 fold change of GCK-ALFA target abundance (FLAG IP / Myc IP barcode read proportion)” has its median near 0.078; the lowest 2% begin near -0.6. This is one part of the list.

B1: GBRAP_160_4316 (protein)
chain: KEEYEKLKEEIDEIFDEAKALIEGQSPEERATIVRVAMGEVLLLVDESEAISDELEEKIAEIADEAEATVAANPDLTEDEVKALIDDARKKILELIEKEA
B2: GBRAP_78_6620 (protein)
chain: ELEELIDKAIEKLNEAAKLAAKIKTEEGQELLGELVDASSYLVEAEEKGGDKKELEEAKKEIEKALKIAKKLGDKELVKKLEEALKLVEEAIKKQEELEK
B3: GBRAP_184_5287 (protein)
chain: MVEHVEIEAETAAEAIAQVEAAAAEARARGAKLRLTLLLRDADVAGVIALFDKLKALRDEGVIESATLGLEREVTEEEADTILAAADAAGVRVVLAIRDE
B4: GBRAP_39_5639 (protein)
chain: SEEEEAEEEYSYLEALGAKLQVEEGISLEELLARQRAYARARFADDPELQALIDELEALAAEGDEMDKLALVGALALAERGESRETIRRHLELLILHLKS
B5: GBRAP_35_5626 (protein)
chain: NTDKEIAEAMVAVLEDTLLAVDEVPAETFLATAIRIAKAAIEVAKELKEDKENAKRILEAARKLLEAALERAEETGAPEETIEELKRLLKEVEELEKKLE
B6: GBRAP_160_4152 (protein)
chain: MEELEKLIKEIKEITEEAIKMMEGETKEEAKVIARVALGEIVLLVESSEAISEETQEKVGKIAREAEEYLKKNPDATVEEIKKKLKEATEKIIEIIKKEK
B7: GBRAP_9_7118 (protein)
chain: YEELIEKLKEVVLDAIEDLHLVIDKLTEEEKEKFKKEVEELKEELLKDKTLTPEEIKEKFLELLKKIYEEVKKIVDEEEAKLAEAIRLTAEEEIDEIVEE
B8: GBRAP_52_5941 (protein)
chain: SSSRLKEIAEELIKLALAGDEEGLRKKAREIAKTYSDEEILAIAKEIAKMAKEAPKEDLDAYFRLMEILTEELEKEGRSEELISEIEGLMAKAMYENELK
B9: GBRAP_160_4492 (protein)
chain: SEKLEKFKEEVKEIVEEAVEAILEEDTSGKLGIARAYAGEIVETALELGVVTEEEADELLKLAEEGMEKIVKAKEKGEEEMKKAAEELKKKLFEFAEKAA
B10: GBRAP_186_5380 (protein)
chain: REELEEREDKIIDELEAQGYTVIVVYLEGLSLEETKKAMERDADAVAALSKETGKKWALVVRIITKAEDVEELEKYAKELNEKYLAESGVVVRAAIESSD
B11: GBRAP_78_6676 (protein)
chain: KVEEELDKAAEHLSEAAKILNKMNTEEALDILGKVIDVLQTVVEAQFGEADLEDLEEALKTAEEALKEVKKIDTEEAKEAAKHLEKAIEHLKKAIELLKK
B12: GBRAP_52_6086 (protein)
chain: MEERLEALAREIAAAVAAGDREGALALIEEAIKELSVEEIRRLLRLAAERVAALGEDAHVLFVDLLDEAEDLMIKAGISEEDALLIVGDAEAALAKAVAA
B13: GBRAP_52_6187 (protein)
chain: MREELRRRVEEMLELVKAGREEEARELARRLVEELSEEELRLLVEVLAEVAAAAPLEDADAVMRLAEILAEAIEEAGKDEVLAEDLLAAAARALHAKELA
B14: GBRAP_74_6529 (protein)
chain: EEEALKKVKEAAEKGDLKGAIKILEENVDKLSPEKLVEALLIVLKLFEKQKETATDEEVDAVIDLIVKVESKVDDLLFPDETLKLIAEALALAVEREKAE
B15: GBRAP_184_5353 (protein)
chain: MVREVLIEAATVEEAIAQLRAAGAAAAAAGASLNVHISVPINTVAEAEALMAALAALAAAGVLPNVVGIDDVANDDAIIDTIVNGADAAGVRVVLGIEGE
B16: GBRAP_45_5799 (protein)
chain: SEEIEEALKKALEELNKAKELVEKTKWSNEETKKKVLEILNKIIKLLTENPYSLEAAEEAAKLAREALKLLLDDPDATAEAIEATLNALNYIEDLAELLK
B17: GBRAP_128_3367 (protein)
chain: LNEELLKKIRELVEEMIKSSVEETAKLMEEIVELINTMSKEEQEAAVEIILESLPKFSEEKLETIADVIRKNRSKLNPYTQNLLAEVEVEALNLAEEQRE
B18: GBRAP_117_2588 (protein)
chain: DPLLEAARARVQALADRVREALERMKTLSPEERKALYEELLRETEELLRELLSELDEETVDEIIDEVLAELDAETYFLFESLLAEAEERIREEERRRELE
B19: GBRAP_52_6044 (protein)
chain: MRERLRELAERLVALVKAGDLEGARALAREIAEELNDEELRGLAEELAELAREGDPEEAEAVLEAAEILADELIEAGHDEALADEIEARVAAAAYERELE
B20: GBRAP_52_6115 (protein)
chain: MYEELKAKVEELLALVKAGKLEEARKRAEELVKSINDEEVKILAEAVAEVAKEAAPEDLDAVWTLAEMIAEALEKAGKPEELVDYLLSKTAAALYERELA
B21: GBRAP_160_4668 (protein)
chain: SEALEALMAEIRAIMDEAVEMMEGESLEERVAVARVMTGEVILLLEESPLATDEVIDYADELGEELVAWLRAHPDATPEEVRARLEEALARLREKLERES
B22: GBRAP_64_6487 (protein)
chain: MEEIEKLLKETLKKAEELVKLLENSSEELQEKAKEILKLIKESEKASLEEAAELLNEALKKLNELLKDPRLTEEQKDKVAELLDLVSELLWLVVEEELEK
B23: GBRAP_186_5374 (protein)
chain: SEELEEKIDEIIDRLEKEGYRVIVVETITELTEEEKEAIERDAEAVGELAKETGQKIALVIPFIGSEEEIEEAKKFVEELNEKFLKEYGVKIELAGLVKE
B24: GBRAP_52_6217 (protein)
chain: SAARARALAEEIVATVQTEGVDAATELLIKLAKELSPEELKLVFDELVALAAQASAETAEALLEAALKAEDALIEAGVSEADVADFIAALAAVAVAKRAA
B25: GBRAP_43_5738 (protein)
chain: DKEVLDAAAEVALLALESEELSDETKIRIIKDFLEVFADSGLKGEELAKKAAELLDNYENKENVKKAIELAKELAKLNPEYKETFEAIAEFLKKKLKELE
B26: GBRAP_53_6407 (protein)
chain: SEEEIRRLIEEIRRLAEEATKADEERQLELARRIVEALKRLKEAGASDEELTALAVEVARELKEAGASDRTLVVLAQGMQELGLDDATAAVSELIVEDLE
B27: GBRAP_137_3612 (protein)
chain: KKIVITFSEEDGVAIATIEADKDVDHEKLLELVEEVAKETGAKVVIAYSDEGDELIIDLVGDRETIVEAVRKLIKRLKEELGAEVELRSEGAEDLVEAVK
B28: GBRAP_43_5734 (protein)
chain: MEEVLDAAAETALLALESEELTDETKVRILRDFMEVAADESKENKELYKAAAEALARSDDAAAVKEAAKLAKELAAKDPKYKETLEAAAKYLEALLKELE
B29: GBRAP_78_6651 (protein)
chain: EVEELLEKALELVNEAAKLALKLPPEARLEVLDHLIDAATEIEEAIEEGGDLEHLKEALEHLKKAAEILKKLDTETAKELLKLVEEAIKLVEEAIKKLKE

These binders were tested against GABARAP, O95166 (assay: median log2 fold change of GCK-ALFA target abundance (FLAG IP / Myc IP barcode read proportion) (log2 ratio); each designed protein is fused to an ALFA-tag nanobody in HEK293 cells to bring the named protein to FLAG-tagged glucokinase (GCK); Myc marks an untargeted standard; higher = target protein stabilised (more abundant)). Settings: target protein: 3xFLAG-MCP-GCK-ALFA reporter; HEK293 landing pad (RPLP).
Chain of GABARAP, O95166 (O95166 whole entry, the tested form may be a part): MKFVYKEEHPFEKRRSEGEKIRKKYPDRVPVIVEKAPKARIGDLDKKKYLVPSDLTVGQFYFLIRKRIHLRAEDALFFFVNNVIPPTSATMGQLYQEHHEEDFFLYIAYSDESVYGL
In short: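 The readout is target abundance, the per-binder median log2 ratio of FLAG to Myc barcode read proportions. It came from HEK293 landing-pad cells carrying a recombined ALFA-nanobody-fused binder library, induced with 2 μg mL^−1 doxycycline and transfected with a plasmid for a FLAG-tagged target and a Myc-tagged standard. After 48 h, lysates were immunoprecipitated with anti-FLAG and anti-Myc, and circular RNA barcodes were reverse transcribed, amplified and sequenced. Each barcode needed a proportion of at least 10^−7 in both replicates and each binder at least 3 barcodes per replicate, a pseudocount of 10^−6 was added, and the replicates were pooled.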

Binder | median log2 fold change
B1 | -0.0788
B2 | 0.289
B3 | 0.0214
B4 | 0.166
B5 | -0.198
B6 | -0.551
B7 | 0.193
B8 | 0.165
B9 | 0.178
B10 | 0.0753
B11 | 0.0941
B12 | -0.626
B13 | 0.181
B14 | 0.287
B15 | -0.0705
B16 | 0.13
B17 | 0.188
B18 | -0.135
B19 | -0.000521
B20 | 0.0864
B21 | -0.374
B22 | 0.13
B23 | -0.0728
B24 | 0.249
B25 | -0.116
B26 | 0.205
B27 | -0.568
B28 | 0.151
B29 | 0.136
